One test deals with HSkMC. The test can be described thus: cytotoxicity call (relative viability < 0.9). Particulars: 10 µM.
In the next test the test system is HepG2. The test can be described thus: cytotoxicity call (relative viability < 0.9). Particulars: 10 µM.
Another test relates to S. aureus RN4220. Briefly: growth inhibition call (relative growth <= 0.2). Particulars: 50 µM.

The other results are listed elsewhere or left out.

For `C[C@@H]1CN([C@H](C)CO)C(=O)c2cccc(NC(=O)c3cnccn3)c2O[C@@H]1CN(C)S(=O)(=O)c1cccs1`, the cytotoxicity call in the test on HSkMC and with HepG2 was “inactive” throughout. Further, the growth inhibition call with S. aureus RN4220 was “inactive”.
Take `CC(C)C#Cc1cnc2c(c1)C(=O)N([C@@H](C)CO)C[C@@H](C)[C@H](CN(C)S(=O)(=O)c1cn(C)cn1)O2`: the cytotoxicity call in the test with HSkMC and in the test on HepG2 was “inactive” throughout. Also, the growth inhibition call with S. aureus RN4220 was “inactive”.
Consider `Cc1noc(C)c1NC(=O)N(C)C[C@H]1Oc2ccc(NS(=O)(=O)c3cccs3)cc2CC(=O)N([C@H](C)CO)C[C@@H]1C`, for which the cytotoxicity call with HSkMC and in the test on HepG2 was “inactive” in each case. The growth inhibition call with S. aureus RN4220 was “inactive”.
Take `O=C(C[C@@H]1CC[C@H]2[C@@H](COC[C@@H](O)CN2Cc2cc(F)ccc2F)O1)N[C@@H]1CCN(Cc2ccccc2)C1`: the cytotoxicity call with HSkMC and in the test on HepG2 was “inactive” each time. Besides, the growth inhibition call in the test with S. aureus RN4220 was “inactive”.
`C[C@@H]1CN([C@H](C)CO)C(=O)Cc2cc(NC(=O)Nc3ccc(F)cc3)ccc2O[C@@H]1CN(C)CC1CCCCC1`: the cytotoxicity call in the test with HSkMC and in the test on HepG2 was “active” each time. The growth inhibition call with S. aureus RN4220 was “inactive”.
For `C[C@@H]1CN([C@H](C)CO)C(=O)c2cc(NS(=O)(=O)c3cccs3)ccc2O[C@@H](C)CCCCO[C@@H]1CN(C)C(=O)c1ccccc1`, the cytotoxicity call in the test with HSkMC and in the test with HepG2 was “inactive” each time. Also, in the test with S. aureus RN4220, the growth inhibition call is “inactive”.
Consider `COc1ccc(NC(=O)Nc2cccc3c2O[C@@H](CN(C)S(=O)(=O)c2cn(C)cn2)[C@H](C)CN([C@H](C)CO)C3=O)cc1`, for which the cytotoxicity call in the test with HSkMC and in the test with HepG2 was “inactive” throughout. In the test on S. aureus RN4220, the growth inhibition call is “inactive”.
Regarding `C[C@H](O)[C@H](O)[C@H]1CNc2[nH]c(N)nc(=O)c2N1`, the cytotoxicity call in the test on HSkMC and in the test on HepG2 was “inactive” throughout. For the same compound, in the test with S. aureus RN4220, the growth inhibition call is “inactive”.
Consider `CCC(C)C(=O)OC1CC(O)C=C2C=CC(C)C(CCC(O)CC(O)CC(=O)[O-])C21.[Na+]` (centres undefined), for which the cytotoxicity call in the test with HSkMC and in the test with HepG2 was “inactive” each time. Moreover, the growth inhibition call in the test with S. aureus RN4220 was “inactive”.
Consider `COc1ccc(NC(=O)N(C)C[C@H]2Oc3ccc(NS(=O)(=O)c4c(C)noc4C)cc3C(=O)N([C@H](C)CO)C[C@H]2C)cc1`, for which the cytotoxicity call in the test with HSkMC and in the test with HepG2 was “inactive” in each case. The growth inhibition call in the test on S. aureus RN4220 is “inactive”.
In the case of `Nc1nnnn1/N=C/c1ccco1`, the cytotoxicity call in the test with HSkMC and in the test on HepG2 was “inactive” throughout. Further, the growth inhibition call in the test with S. aureus RN4220 is “inactive”.
As to `C[C@H](CO)N1C[C@H](C)[C@H](CN(C)C(=O)Nc2ccccc2C(F)(F)F)OCc2cnnn2CCCC1=O`, the cytotoxicity call with HSkMC and with HepG2 was “inactive” in each case. For the same compound, the growth inhibition call in the test with S. aureus RN4220 is “inactive”.
As to `C[C@H](CO)N1C[C@H](C)[C@@H](CN(C)Cc2ccccc2)OCCCC[C@H](C)Oc2ccc(NS(=O)(=O)c3ccc(F)cc3)cc2C1=O`, the cytotoxicity call in the test on HSkMC and in the test with HepG2 was “inactive” in each case. Also, the growth inhibition call in the test with S. aureus RN4220 was “inactive”.
With `O=C(C[C@@H]1C[C@H]2c3cc(NC(=O)Nc4ccccc4)ccc3O[C@H]2[C@@H](CO)O1)NCCN1CCCCC1`, the cytotoxicity call in the test on HSkMC and in the test with HepG2 was “inactive” throughout. For the same compound, the growth inhibition call in the test with S. aureus RN4220 was “inactive”.
In the case of `N[C@H](CCC(=O)O)C(=O)O`, the cytotoxicity call in the test with HSkMC and in the test on HepG2 was “inactive” throughout. Besides, the growth inhibition call with S. aureus RN4220 was “inactive”.
`CCCC[P+](CCCC)(CCCC)Cc1ccc(NC(=O)[C@@H](Cc2ccc3ccccc3c2)N=C(NC2CCCCC2)NC2CCCCC2)cc1`: the cytotoxicity call with HSkMC was “active”. The cytotoxicity call in the test with HepG2 is “inactive”. Also, the growth inhibition call in the test on S. aureus RN4220 is “active”.
Turning to `CO/N=[N+](\[O-])N1CCC[C@H](C(N)=O)C1`, the cytotoxicity call with HSkMC and in the test on HepG2 was “inactive” each time. The growth inhibition call in the test on S. aureus RN4220 is “inactive”.
For the compound `C[C@@H]1CN([C@@H](C)CO)C(=O)c2cc(NC(=O)Nc3ccccc3)ccc2O[C@H]1CN(C)Cc1ccc(Cl)c(Cl)c1`, the cytotoxicity call in the test with HSkMC was “inactive”. In addition, the cytotoxicity call in the test on HepG2 is “active”. Moreover, in the test with S. aureus RN4220, the growth inhibition call is “inactive”.
Regarding `C[C@H](CO)N1C[C@H](C)[C@@H](CN(C)C(=O)Nc2cccc3ccccc23)OCCCC[C@H](C)Oc2ccc(N(C)C)cc2C1=O`, the cytotoxicity call with HSkMC and in the test with HepG2 was “inactive” in each case. In the test on S. aureus RN4220, the growth inhibition call is “inactive”.
As for `C[C@H]1CN([C@@H](C)CO)C(=O)c2cc(NC(=O)CCCN(C)C)ccc2O[C@@H]1CN(C)C(=O)Nc1ccc(F)cc1`, the cytotoxicity call with HSkMC and in the test on HepG2 was “inactive” in each case. In the test on S. aureus RN4220, the growth inhibition call was “inactive”.
In the case of `COc1ccc(S(=O)(=O)Nc2ccc3c(c2)CC(=O)N([C@@H](C)CO)C[C@@H](C)[C@@H](CN(C)S(=O)(=O)c2ccc(OC)cc2)O3)cc1`, the cytotoxicity call in the test on HSkMC (human skeletal muscle cells) and in the test on HepG2 was “inactive” in each case. Also, in the test on S. aureus RN4220, the growth inhibition call is “inactive”.
Regarding `C[C@H]1CCCCO[C@@H](CN(C)C(=O)Nc2ccc(C(F)(F)F)cc2)[C@@H](C)CN([C@@H](C)CO)C(=O)c2cc(NC(=O)Nc3ccc4c(c3)OCO4)ccc2O1`, the cytotoxicity call in the test with HSkMC and in the test with HepG2 was “inactive” in each case. In addition, in the test with S. aureus RN4220, the growth inhibition call is “inactive”.
Turning to `O=C(C[C@H]1C[C@@H]2c3cc(NS(=O)(=O)c4ccc(F)cc4)ccc3O[C@@H]2[C@H](CO)O1)NCc1cccnc1`, the cytotoxicity call with HSkMC and with HepG2 was “inactive” throughout. In the test with S. aureus RN4220, the growth inhibition call is “inactive”.
Regarding `O=C(O)c1ccc2cc(-c3ccc(O)c(C45CC6CC(CC(C6)C4)C5)c3)ccc2c1`, the cytotoxicity call with HSkMC and with HepG2 was “inactive” throughout. In the test with S. aureus RN4220, the growth inhibition call was “active”.
On to `COCCN1C[C@H](C(=O)O)CC1=O`, for which the cytotoxicity call in the test with HSkMC and in the test with HepG2 was “inactive” in each case. In addition, the growth inhibition call in the test with S. aureus RN4220 was “inactive”.
As to `COCCCNC(=O)[C@@]1(Sc2ccc(C)cc2)CC(=O)N(Cc2ccccc2C(F)(F)F)[C@@H]1c1ccc(CO)cc1I`, the cytotoxicity call in the test with HSkMC and in the test on HepG2 was “inactive” in each case. For the same compound, in the test on S. aureus RN4220, the growth inhibition call is “inactive”.
Take `Cc1noc(C)c1S(=O)(=O)N(C)C[C@H]1Oc2c(NC(=O)c3cnccn3)cccc2C(=O)N([C@@H](C)CO)C[C@H]1C`: the cytotoxicity call in the test with HSkMC and with HepG2 was “inactive” throughout. Besides, in the test on S. aureus RN4220, the growth inhibition call was “inactive”.
On to `COc1ccc(-c2cnc3c(c2)C(=O)N([C@@H](C)CO)C[C@@H](C)[C@@H](CN(C)C(=O)Cc2ccccn2)O3)cc1`, for which the cytotoxicity call in the test with HSkMC and in the test with HepG2 was “inactive” in each case. Further, in the test with S. aureus RN4220, the growth inhibition call is “inactive”.

(Values after the antibiotic and cytotoxicity screens of Wong et al. (2023).)
